The target of the experiment is SARS-CoV-2 spike protein (Severe acute respiratory syndrome coronavirus 2, UniProt P0DTC2). As to conditions: 1% NCT, 30 min, 37° C.

The structures appear in SMILES notation.

In the case of `O=S(=O)(O)CCNCl` [NCT, N-chlorotaurine], the methionines oxidized result is given as “Two”, the oxidation of cysteine result was “No oxidation of cysteine could be detected”, the tryptophan chlorinated entry is on record as “one” and the tyrosines chlorinated is given as 18.

Values taken from patent publication US12171732B2, “Compositions and use of N-chlorotaurine for treatment and prevention of respiratory infections” (priority 2021, dated 2024).
